From paper PMC6919601, “Identification of Plasmodium dipeptidyl aminopeptidase allosteric inhibitors by high throughput screening” (PLoS ONE, 2019)
Out of some 110,000 compounds screened, about 230 (0.21%) showed an effect of 50% or more. The list shows a part of the results.

Biological target: DPAP1 (Plasmodium falciparum, UniProt Q8IIJ9)
Assay: primary screen, percent inhibition; read by cleavage of a fluorogenic dipeptide substrate; higher = more effect of the substance
Parameters: species or system P. falciparum D10 trophozoite lysates; single well
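Also: 30 min substrate incubation versus DMSO and 10 µM JCP410 controls.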

DPAP1, sequence (Q8IIJ9 whole entry, looked up): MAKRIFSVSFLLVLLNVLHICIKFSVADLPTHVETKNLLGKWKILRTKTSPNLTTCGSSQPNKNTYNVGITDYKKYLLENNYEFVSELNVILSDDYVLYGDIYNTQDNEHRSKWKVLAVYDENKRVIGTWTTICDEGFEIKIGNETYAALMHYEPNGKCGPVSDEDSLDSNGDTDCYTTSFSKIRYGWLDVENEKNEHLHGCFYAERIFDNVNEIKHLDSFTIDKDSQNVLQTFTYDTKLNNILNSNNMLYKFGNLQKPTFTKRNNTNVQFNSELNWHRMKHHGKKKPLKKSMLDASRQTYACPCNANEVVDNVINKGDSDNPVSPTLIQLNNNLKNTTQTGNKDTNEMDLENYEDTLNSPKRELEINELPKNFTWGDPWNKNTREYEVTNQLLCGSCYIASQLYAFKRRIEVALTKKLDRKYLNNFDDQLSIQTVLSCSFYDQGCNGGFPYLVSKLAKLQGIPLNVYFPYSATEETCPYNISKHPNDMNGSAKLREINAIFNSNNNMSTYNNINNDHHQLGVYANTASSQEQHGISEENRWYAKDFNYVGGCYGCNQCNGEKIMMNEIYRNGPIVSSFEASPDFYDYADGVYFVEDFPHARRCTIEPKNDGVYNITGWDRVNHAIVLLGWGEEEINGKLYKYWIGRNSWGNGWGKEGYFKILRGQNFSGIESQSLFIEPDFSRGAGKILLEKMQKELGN

| Compound | % Inhibition @ 10 uM [%] |
| --- | --- |
| NS(=O)(=O)c1ccc(NC2=NC(=O)C(CC(=O)Nc3ccccc3)S2)cc1 (stereo not shown) | 0.528 |
| CC(C)N(Cc1ccccc1)C(=O)C1CCN(C(=O)c2cnn(-c3ccccc3)c2-n2cccc2)CC1 | 0.137 |
| Oc1nc2ccc(C34CC5CC(CC(C5)C3)C4)cc2nc1O | -2.99 |
| COCCNC(=O)/C(C#N)=C/c1c(Oc2ccc(OC)cc2)nc2ccccn2c1=O | 1.19 |
| COc1cccc(C(=O)Nc2ccc3c(c2)Cc2ccccc2-3)c1OC | 2.27 |
| COc1cc(C2C3=C(O)CC(C)(C)CC3=NC(C)=C2C(=O)Nc2ccccc2C)ccc1O (stereo not shown) | 3.96 |
| CC(=O)NC1=NN(C(C)=O)C(C)(CS(=O)(=O)c2ccc3ccccc3c2)S1 (stereo not shown) | -4.75 |
| Cn1c2ccccc2c2c(C(=O)N3CCN(C(=O)c4ccco4)CC3)cn(C3CCCCC3)c(=O)c21 | 0.163 |
| COc1ccc2[nH]c3c(=O)n(CCCCC(=O)N4CC(C)CC(C)C4)c(=S)[nH]c3c2c1 (stereo not shown) | -2.19 |
| CC(C)(C)n1nc2c(c1NC(=O)c1cccc(Br)c1)CS(=O)(=O)C2 | -1.61 |
| COc1cccc(C2CC(=O)N=C(NC(=O)c3ccc(OC(F)F)cc3)N2)c1OC (stereo not shown) | -4.46 |
| COc1ccc(C)cc1NCc1cccc2ccccc12 | 7.24 |
| O=C1c2ccccc2C(=O)c2c1cccc2S(=O)(=O)N1CCOCC1 | 3.04 |
| O=C(O)COc1ccc(C2C3CC4CC(C3)CC2C4)cc1 (stereo not shown) | 0.00784 |
| COc1ccc(-n2nc3c(c2NC(=O)c2ccccc2C(F)(F)F)CS(=O)C3)cc1 (stereo not shown) | 2.84 |
| Cc1ccc(-c2cc3c4c(C)n(C)c(C)c4c(C)nn3c2)o1 | 2.21 |
| COCCNC(=O)c1cc2c(O)nc3ccc(C)cc3c2s1 | -5.17 |
| CCOc1ccc(NCC(=O)Nc2ccc(C)cc2C)cc1 | -7.83 |
| COc1cc(OC)c(C2CC(=O)Oc3c2c(O)nc2ccccc32)cc1OC (stereo not shown) | -1.05 |
| N#Cc1c(-c2ccc([N+](=O)[O-])cc2)cc(-c2ccccc2)nc1N | -2.21 |
| CC(C)c1nnc(NC(=O)CCCOc2ccc(Cl)cc2)s1 | -4.93 |
| CCOC(=O)C1=CN(C(C)C)C=C(C(=O)OCC)C1c1ccc(OC)c(O)c1 | 0.219 |
| CC12CCC(=O)C=C1CCC1C2CCC2(C)C(C(=O)O)CCC12 (stereo not shown) | -1.5 |
| Cc1ccc(Cn2c(C)nc3ccccc32)cc1 | -2.2 |
| C#CC(C)(C)N1CC(C)C(O)(c2ccccc2)CC1C (stereo not shown) | -0.127 |

| Compound | % Inhibition @ 10 uM [%] |
| --- | --- |
| O=C(O)C1CCN(Cc2cnn(-c3ccccc3)c2-n2cccc2)CC1 | -3.78 |
| CCC1=C(C#N)C(c2cccnc2)C(C(=O)OC)=C(N)O1 (stereo not shown) | 1.76 |
| CC(=O)OC1CC2CCC(C1)N2C(=O)N1c2ccccc2C=Cc2ccccc21 (stereo not shown) | 3.32 |
| Nc1c(C(=O)c2ccc(Br)cc2)sc2nc(-c3cccs3)cc(C(F)(F)F)c12 | -3.72 |
| CCC1CCCCN1CCCNC(=O)Cn1ncc2c3ccccc3n(C)c2c1=O (stereo not shown) | -0.23 |
| Cc1oc2ncnc(N3CCC(C(N)=O)CC3)c2c1C(=O)O | -0.495 |
| COc1ccc(CN2CCC(N3CCCCC3)CC2)c(OC)c1 | -1.78 |
| COCCn1c(CCC(=O)NCCc2ccc(Cl)cc2)nc2cccnc21 | 2.57 |
| CCc1ccc(C2c3c(-c4ccccc4O)n[nH]c3C(=O)N2CC2CCCO2)cc1 (stereo not shown) | -1.35 |
| CCc1cccc(C)c1NC(=O)CN(C)S(=O)(=O)c1ccc(C)cc1 | -5.67 |
| Cc1ccc(CCNC(=O)c2nnc(Cc3ccc(C)cc3)o2)cc1 | -2.23 |
| c1coc(CNc2nn3nnnc3c3ccccc23)c1 | -0.975 |
| COc1ccc(Cl)cc1NC(=O)C1C2CCC(C2)C1C(=O)O (stereo not shown) | 3.32 |
| COc1cc2c(cc1OC)C1=C(C#N)CC/C(=N\C(=O)c3ccccc3F)N1CC2 | 2.24 |
| COc1ccc(C2=N/C(=C\c3ccc(C(C)C)cc3)C(=O)O2)cc1 | 3.58 |
| O=C(O)c1ccc(NC(=O)c2ccco2)cc1 | -8.3 |
| O=[N+]([O-])c1ccc(N2CCN(Cc3ccccc3C(F)(F)F)CC2)cc1 | -1.92 |
| Cc1cc(O)c2c(C)c(CC(=O)NCc3ccc4c(c3)OCO4)c(=O)oc2c1 | 4.13 |
| CCOc1cc(S(=O)(=O)NCc2cccnc2)c(C)cc1C | 3.35 |
| O=C(CCC(=O)OCC(Cl)=C(Cl)Cl)Nc1ccc(Cl)cc1Cl | -1.76 |
| O=C1Nc2ccccc2C1(O)C(F)(F)F (stereo not shown) | 4.17 |
| CCC(=O)Nc1ccc(NC(=O)c2ccccc2)cc1C | -3.37 |
| Oc1ccc(-c2nc3ccc4ccccc4c3c3c2CCCC3)cc1O | -1.97 |
| Cc1nc(C)c(NC(=O)Nc2ccc(F)cc2)cc1NC(=O)Nc1ccc(F)cc1 | 6.61 |
